Out of some 310,000 compounds screened, about 2,200 (0.71%) showed an effect of 50% or more. Effects have a minus sign here. The list shows a part of the results.

Sequence of human ether-à-go-go-related gene (hERG) potassium channel (Q12809 whole entry, looked up): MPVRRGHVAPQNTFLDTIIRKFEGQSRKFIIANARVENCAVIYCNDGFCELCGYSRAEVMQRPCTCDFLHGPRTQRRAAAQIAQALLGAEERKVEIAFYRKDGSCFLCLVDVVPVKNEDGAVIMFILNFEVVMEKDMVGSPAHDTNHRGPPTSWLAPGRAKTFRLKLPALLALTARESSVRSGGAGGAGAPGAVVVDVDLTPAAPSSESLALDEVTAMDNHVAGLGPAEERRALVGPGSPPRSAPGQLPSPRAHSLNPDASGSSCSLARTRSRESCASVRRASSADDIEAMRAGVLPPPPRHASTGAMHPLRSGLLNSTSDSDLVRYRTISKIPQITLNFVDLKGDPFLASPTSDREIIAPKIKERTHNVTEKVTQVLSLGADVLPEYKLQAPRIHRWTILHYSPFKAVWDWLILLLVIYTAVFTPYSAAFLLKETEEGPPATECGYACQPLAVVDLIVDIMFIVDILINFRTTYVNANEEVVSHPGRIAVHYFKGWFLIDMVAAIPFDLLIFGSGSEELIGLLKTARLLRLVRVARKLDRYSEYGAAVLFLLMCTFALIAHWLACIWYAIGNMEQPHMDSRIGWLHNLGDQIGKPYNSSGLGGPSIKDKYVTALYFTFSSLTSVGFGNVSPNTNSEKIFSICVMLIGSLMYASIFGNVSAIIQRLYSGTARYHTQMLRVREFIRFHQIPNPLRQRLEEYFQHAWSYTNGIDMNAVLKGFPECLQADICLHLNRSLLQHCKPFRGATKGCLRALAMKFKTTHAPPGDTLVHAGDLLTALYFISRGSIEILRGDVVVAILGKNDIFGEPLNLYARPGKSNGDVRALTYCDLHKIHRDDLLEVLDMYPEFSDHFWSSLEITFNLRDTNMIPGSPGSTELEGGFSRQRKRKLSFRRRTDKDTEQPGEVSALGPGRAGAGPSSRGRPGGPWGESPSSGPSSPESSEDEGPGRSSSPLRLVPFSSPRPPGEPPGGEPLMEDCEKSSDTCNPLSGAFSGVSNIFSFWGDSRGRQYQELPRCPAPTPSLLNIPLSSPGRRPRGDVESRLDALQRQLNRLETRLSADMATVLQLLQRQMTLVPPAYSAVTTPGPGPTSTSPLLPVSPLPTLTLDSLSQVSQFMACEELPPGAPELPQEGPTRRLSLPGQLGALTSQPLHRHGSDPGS

The experiment has as its target human ether-à-go-go-related gene (hERG) potassium channel (human, UniProt Q12809). Kind of experiment: primary screen, population patch clamp on CHO cells stably expressing hERG.
Consider `Cc1onc(-c2c(Cl)cccc2Cl)c1C(=O)Nc1ccc(C(N)=O)cc1`, for which the “hERG current change (%, negative = inhibition) at 1uM” value is 8.28%.
Consider `Cc1nc2c(-c3ccc(F)cc3)c(C)nn2c(C)c1CCC(=O)Nc1ccc(F)cc1F`, for which the “hERG current change (%, negative = inhibition) at 1uM” value was determined as 12.2%.
For `O=C1CCc2cc(S(=O)(=O)N3CCN(c4cccc(Cl)c4)CC3)ccc2N1`, the “hERG current change (%, negative = inhibition) at 1uM” value is -1.29%.
For `COc1ccc(C(=O)NC(=S)Nc2cccc3nc(C)ccc23)cc1OC` the value was 12.5%.
For `CCOC(=O)c1[nH]c(C)c(C(=O)NCc2ccc(C)cc2)c1C` the value was 7.5%; for `O=C(Cn1nc(-c2ccccc2)nc1-c1ccccc1)N1CCOCC1`, 10.1%; for `CC(=O)C1=C(O)C(=O)N(Cc2ccco2)C1c1ccc(F)cc1` (stereo not shown), -1.67%.
For `CCC(C(=O)NCCCN1CCN(CC)CC1)n1nc(C)n2c(cc3occc32)c1=O` (stereo not shown) the value was 11.8%; for `CCCN1C(=O)CSC1=Nc1ccccc1`, 11.8%.
Consider `CCCCC(=O)Nc1ccc(C(=O)NNC(=O)c2cccs2)cc1`, for which the “hERG current change (%, negative = inhibition) at 1uM” value was determined as 3.66%.
For `CCNC(=O)CSc1nnc(-c2ccccc2)n1-c1ccc(OCC)cc1` the value was -48.5%.
Under `N#CCNC(=O)C1c2ccccc2Oc2ccccc21` stands 14.5%; under `Cc1nc(SCC(=O)c2ccccc2)c(C#N)c(-c2ccco2)c1C(=O)NCc1ccco1`, 2.31%.
Under `Cc1ccc(CNC(=O)Cn2c(=O)c3sccc3n(Cc3ccc([N+](=O)[O-])cc3)c2=O)cc1` stands -3.44%.
On to `CCOc1ncccc1C(=O)Nc1ccc(F)cc1`, for which the “hERG current change (%, negative = inhibition) at 1uM” value is 6.95%.
Under `O=C(NC1CCCC1)C(c1ccccc1)N(C(=O)c1ccno1)c1ccccc1` (stereo not shown) stands 10.8%.
For `COc1ccc(CCNC(=O)C2CCCN(S(C)(=O)=O)C2)cc1OC` (stereo not shown) the value was 14.9%; for `COC(=O)C1=C(COc2ccccc2)NC(=O)NC1c1ccc2ccccc2c1` (stereo not shown), 14.4%.
Under `Cc1cccc(C2Nc3cccc4cccc(c34)N2)c1` stands 8.84%; under `CCCCn1c(N)c(N(CC(C)C)C(=O)c2ccc(Cl)c(S(=O)(=O)N3CCCC3)c2)c(=O)[nH]c1=O`, 9.58%.
On to `O=C(COC(=O)c1cc(=O)[nH]c(=O)[nH]1)NCc1ccccc1`, for which the “hERG current change (%, negative = inhibition) at 1uM” value was found to be 18.3%.
For `CCS(=O)(=O)C1=NSC2=NC(=O)/C(=C\c3cc(C)n(-c4cccc(OC)c4)c3C)C(=N)N21` the value was 0.321%; for `CCOC(=O)N/N=C/c1c(C)nn(-c2ccccc2Cl)c1Cl`, -0.338%.
Under `O=C1C=C(c2ccccc2)C[C@H](c2cccs2)[C@H]1n1cnc([N+](=O)[O-])c1` stands 2.53%; under `Cc1nnc(Cl)c2nn(-c3ccccc3)c(C)c12`, 19.1%; under `Cc1ccc(-n2c(C)cc(/C=N/NC(N)=S)c2C)cc1`, 16.5%.
For `COc1cc2c(cc1OC)C(NC(=O)C(F)(F)F)C/C2=N\O` (stereo not shown) the value was 0.323%; for `CCOC(=O)c1cccc(P(C)(C)=O)c1`, 12.4%; for `O=C(CCc1cn(Cc2ccc(F)cc2)c2ccccc12)N1CCOCC1`, 6.5%.
For the compound `COc1ccc(C(=O)Nc2ccc(/C(C)=N/NC(=O)c3ccncc3)cc2)cc1`, the “hERG current change (%, negative = inhibition) at 1uM” value is -7.49%.
For the compound `COc1ccc(OCc2nnc3n2N=C(c2ccc(C)cc2)CS3)cc1`, the “hERG current change (%, negative = inhibition) at 1uM” value is given as 11.7%.
For `COCCSc1ccccc1C(=O)Nc1nccs1` the value was 10.9%; for `Cn1c(=O)c2c(nc(Oc3ccc4c(c3)OCO4)n2Cc2ccc(F)cc2)n(C)c1=O`, 12.5%; for `O=S(=O)(N/N=C\c1ccc2c(c1)OCO2)c1ccc(F)cc1`, 15.9%.
Under `Cc1ccc(-c2nnn(CC(=O)Nc3ccc(S(=O)(=O)N4CCC(C)CC4)cc3)n2)cc1` stands 0.314%.
For the compound `Cc1ccc(S(=O)(=O)NC2CC(C)(C)NC(C)(C)C2)cc1`, the “hERG current change (%, negative = inhibition) at 1uM” value came out at 27.5%.
As to `CCC(CC)COC(=O)C1=C(C)NC(=O)NC1c1ccc([N+](=O)[O-])cc1` (stereo not shown), the “hERG current change (%, negative = inhibition) at 1uM” value is 9.49%.
Under `Cc1nn2cc(-c3cccc(Cl)c3)cnc2c1Cl` stands 6.1%.
For `COc1ccc(Sc2cc(C(F)(F)F)nc(-c3ccccn3)n2)cc1` the value was 4.35%; for `CCN(CC(=O)NCc1cccs1)C(=O)c1cccc(S(=O)(=O)Nc2ccc(OC)cc2)c1`, 2.84%.
For `O=S1(=O)N[C@H](c2ccccc2)C[C@H](c2ccc(C(F)(F)F)cc2)O1`, the “hERG current change (%, negative = inhibition) at 1uM” value is reported as 18.2%.
For `O=C(/C=C/c1ccncc1)c1cc(Cl)ccc1O` the value was 18.6%.
Under `CCc1ccccc1NC(=O)CN1C(=O)C2CCCN2c2ncc(Cl)cc21` (stereo not shown) stands 11.8%.
On to `CC(C)c1ccc(C(O)P(=O)(OCc2ccccc2)c2ccc(N(C)C)cc2)cc1` (stereo not shown), for which the “hERG current change (%, negative = inhibition) at 1uM” value is 11.8%.
Take `C/C(N)=C(/C#N)C(=O)CSc1nc(C2CCCCC2)n(-c2ccccc2)n1`: the “hERG current change (%, negative = inhibition) at 1uM” value is listed as 11.3%.
Under `Cc1ccc(NC(=O)CN2C(=O)NC(Cc3c[nH]c4ccccc34)C2=O)cc1` (stereo not shown) stands 8.72%.
For `O=C(NN1C(=O)NC2(CCCCC2)C1=O)c1ccc(-c2ccc([N+](=O)[O-])cc2)o1` the value was 2.68%.
As to `Cc1ccc(-c2cc(C(=O)N/N=C/c3ccco3)[nH]n2)cc1`, the “hERG current change (%, negative = inhibition) at 1uM” value worked out at 5.38%.
For `O=c1cc(CN2CCN(c3cccc(C(F)(F)F)c3)CC2)nc2sccn12` the value was 2.21%.
For `COc1ccccc1N1CCN(/N=C/c2ccccc2C(=O)O)CC1` the value was 15.7%; for `COc1cc(C(=S)N2CCC(C(N)=O)CC2)ccc1O`, 6.37%; for `CCCCc1ccc(NC(=O)N[C@@H](CC(C)C)C(=O)O)cc1`, 9.32%.
Under `S=C(Nc1ccccc1Cl)N1CCCC1` stands 11.1%; under `Cc1ccc2[nH]c(=O)c(CN(CCc3ccccc3)C(c3nnnn3Cc3ccco3)C(C)C)cc2c1` (stereo not shown), 12.2%.
Take `Cc1c(CCOC(=O)c2ccc([N+](=O)[O-])cc2)sc[n+]1CC(=O)c1ccccc1.[Br-]`: the “hERG current change (%, negative = inhibition) at 1uM” value is listed as -6.66%.
Under `Cc1cccc(OCCOCCN2CCOCC2)c1C` stands -10.4%; under `CC(C)Cn1c(N)c(C(=O)COC(=O)CC23CC4CC(CC(C4)C2)C3)c(=O)n(C)c1=O`, 13.6%.
Under `Clc1ccccc1OCCn1ccnc1` stands 6.3%.
Under `Cc1cc([N+](=O)[O-])c2ccccc2[n+]1[O-]` stands 15%; under `CNC(=O)c1c(NC(=O)c2ccc(S(=O)(=O)N(C)c3ccccc3)cc2)sc2c1CCN(C(C)C)C2`, 12.9%.
Regarding `CCCCN(C)c1c(N2CCC(C(=O)OCC)CC2)c(=O)c1=O`, the “hERG current change (%, negative = inhibition) at 1uM” value is recorded as 0.0218%.
Under `O=C(O)CSc1nnc(-c2ccccc2)o1` stands 15.5%; under `C/C=C(\C)C(=O)NCCN1C2=NC[C@H](Cc3ccc(O)cc3)N2C[C@@H]1Cc1ccc(OC)cc1`, 10.6%.
For `CCCCn1c(N)c(N(CC(C)C)C(=O)c2cc3c(s2)CCC3)c(=O)[nH]c1=O` the value was 9.32%.
For `O=C1CC(SCc2nc3ccccc3[nH]2)C(=O)N1c1cccc(Cl)c1` (stereo not shown) the value was -14.2%; for `O=C(NCCc1ccc(F)cc1)C(=O)Nc1cc2c3c(c1)CC(=O)N3CCC2`, 4.06%; for `CCOc1ccc(NS(=O)(=O)c2ccc(OC)c(C)c2)cc1`, 6.27%.
As for `O=C(CSc1nc(-c2ccccc2)cc(=O)[nH]1)N1CCc2ccccc21`, the “hERG current change (%, negative = inhibition) at 1uM” value was -0.629%.
Under `Cc1ccc(C2(C)NC(=O)N(CC(=O)Nc3nc(-c4ccccn4)cs3)C2=O)cc1` (stereo not shown) stands 7.58%.
For `CCC1CCCCN1C(=O)COc1c(Br)cc(Br)c2cccnc12` (stereo not shown) the value was 15.9%; for `CC(=O)Nc1nnc(Cc2ccccc2)s1`, 13.8%; for `COC(=O)c1cnc[nH]1`, 10.4%.
For `COc1ccc(-c2[nH]ncc2CN2C[C@@H]3CCC[C@H]2C3)c(F)c1` the value was 15.4%; for `CCOC(=O)C1=C(c2ccccc2)Nc2ncnn2C1c1ccccn1` (stereo not shown), 6.89%.
Consider `Cc1cc(=O)n2[nH]c(-c3ccc(F)cc3)cc2n1`, for which the “hERG current change (%, negative = inhibition) at 1uM” value is 11.1%.
For `COCc1c(Br)c(C)nc(OCC(=O)N/N=C/c2ccc(C)o2)c1C#N`, the “hERG current change (%, negative = inhibition) at 1uM” value came out at 3.72%.
As for `COCCCN(C(=O)c1cc2c(s1)CCC2)c1c(N)n(Cc2ccccc2)c(=O)[nH]c1=O`, the “hERG current change (%, negative = inhibition) at 1uM” value was 7.23%.
As for `O=C(CN(Cc1ccccc1F)C(=O)c1csnn1)NCc1ccc2c(c1)OCO2`, the “hERG current change (%, negative = inhibition) at 1uM” value worked out at 8.42%.
For `CC(=O)Nc1ccc(S(=O)(=O)NCCC(=O)NCCCc2ccccc2)cc1` the value was 2.47%.
For `COc1ccc(/C=N/n2cncn2)cc1Cn1cc([N+](=O)[O-])cn1`, the “hERG current change (%, negative = inhibition) at 1uM” value is recorded as -9.39%.
As to `CCOC(=O)c1cccc(-n2c(C)nc3ccccc3c2=O)c1`, the “hERG current change (%, negative = inhibition) at 1uM” value stood at 5.29%.
Consider `O=C(NCCN1C(=O)C2C3C=CC(C3)C2C1=O)Nc1ccccn1` (stereo not shown), for which the “hERG current change (%, negative = inhibition) at 1uM” value is given as 5.7%.
Under `COc1ccc(C(=O)COc2cccc(NC(=O)c3ccco3)c2)cc1` stands -8.6%.
For `CCCOc1ccccc1NC(=O)c1ccc(N)cc1` the value was -0.204%; for `COc1ccc(S(=O)(=O)Cc2ccc(C(=O)NC3CC3)o2)cc1`, 1.8%; for `CSc1ccccc1NC(=S)NC1CCCCC1`, 7.63%.
Under `CCc1ccc(/C=N/n2c(COc3ccccc3)n[nH]c2=S)cc1` stands 13.6%.
On to `O=C(NCc1cccc(C(F)(F)F)c1)c1cc(Cl)ccc1Cl`, for which the “hERG current change (%, negative = inhibition) at 1uM” value stood at 19.5%.

The values above are taken from paper PMC4336329 (PLoS ONE, 2015).
